Assay results reported in article PMC4336329 (PLoS ONE, 2015).
Screen size: about 310,000 compounds; about 14,000 (4.5%) showed an effect of 50% or more. Effects have a minus sign here. This is one part of the list.
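Also: peak tail current of the secondary pulse compared with the same well before compound.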

These compounds were tested against human ether-à-go-go-related gene (hERG) potassium channel (human, UniProt Q12809) (assay: primary screen, population patch clamp on CHO cells stably expressing hERG).
human ether-à-go-go-related gene (hERG) potassium channel, sequence (Q12809 whole entry, looked up): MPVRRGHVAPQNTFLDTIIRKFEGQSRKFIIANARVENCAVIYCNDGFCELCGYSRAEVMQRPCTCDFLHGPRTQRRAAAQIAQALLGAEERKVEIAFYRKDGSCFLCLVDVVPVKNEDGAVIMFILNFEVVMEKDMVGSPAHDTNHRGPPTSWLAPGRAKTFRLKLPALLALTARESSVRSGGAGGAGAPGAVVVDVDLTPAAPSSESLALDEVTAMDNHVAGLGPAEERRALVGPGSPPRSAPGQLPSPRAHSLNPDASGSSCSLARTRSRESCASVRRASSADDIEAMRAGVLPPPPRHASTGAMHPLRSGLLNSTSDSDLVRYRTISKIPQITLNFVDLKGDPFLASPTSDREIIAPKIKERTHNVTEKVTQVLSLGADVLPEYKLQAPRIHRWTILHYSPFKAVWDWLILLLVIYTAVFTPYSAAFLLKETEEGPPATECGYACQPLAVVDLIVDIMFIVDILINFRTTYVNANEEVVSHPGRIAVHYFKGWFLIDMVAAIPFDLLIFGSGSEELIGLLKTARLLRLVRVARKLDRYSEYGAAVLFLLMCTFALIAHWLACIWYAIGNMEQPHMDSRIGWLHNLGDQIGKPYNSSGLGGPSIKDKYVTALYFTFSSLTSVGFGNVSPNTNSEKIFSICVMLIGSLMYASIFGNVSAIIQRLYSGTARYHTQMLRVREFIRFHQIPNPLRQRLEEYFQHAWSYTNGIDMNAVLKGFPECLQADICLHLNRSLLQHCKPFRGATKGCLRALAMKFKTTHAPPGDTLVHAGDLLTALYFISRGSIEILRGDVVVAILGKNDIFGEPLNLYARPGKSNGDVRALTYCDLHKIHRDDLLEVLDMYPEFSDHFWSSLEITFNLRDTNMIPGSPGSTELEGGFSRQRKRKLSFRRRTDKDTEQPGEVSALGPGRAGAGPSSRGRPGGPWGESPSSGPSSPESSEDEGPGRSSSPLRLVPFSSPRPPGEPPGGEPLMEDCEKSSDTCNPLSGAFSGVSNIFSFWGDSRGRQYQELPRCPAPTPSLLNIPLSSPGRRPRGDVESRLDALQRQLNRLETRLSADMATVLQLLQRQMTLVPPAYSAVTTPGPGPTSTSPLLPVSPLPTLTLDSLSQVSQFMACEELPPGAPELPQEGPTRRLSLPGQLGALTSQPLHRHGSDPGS
In the case of `COc1cc(/C=N/NC(=S)NCc2ccco2)cc(OC)c1OC`, the “hERG current change (%, negative = inhibition) at 10uM” value is reported as 15.9%. `Cc1ccccc1NC(=O)N1CCCN(c2ccc(C#N)cn2)CC1` was tested, and the “hERG current change (%, negative = inhibition) at 10uM” value was -30.1%. In the case of `COc1ccc(OC)c(NC(=O)CSc2nc3cccnc3n2C)c1`, the “hERG current change (%, negative = inhibition) at 10uM” value is reported as -8.63%. With `COc1ccccc1N(CC1CO1)S(=O)(=O)c1ccc(C)cc1` (stereo not drawn) the “hERG current change (%, negative = inhibition) at 10uM” value was 18.9%. In the case of `CC(OC(=O)c1cnc(Cl)c(Cl)c1)C(=O)NCc1ccccc1` (stereo not drawn), the “hERG current change (%, negative = inhibition) at 10uM” value is reported as -9.22%. In the case of `COC(=O)C1=C(c2cccc(OCc3ccccc3)c2)C[C@@H]2CC[C@H]1N2C(=O)NCc1cccc(OC)c1`, the “hERG current change (%, negative = inhibition) at 10uM” value is reported as 7.64%. For `C=C(C)CNC(=S)NNC(=O)CCn1c2ccccc2c2ccccc21`, the “hERG current change (%, negative = inhibition) at 10uM” value was -20.1%. For `CCCCCn1c(N)c(C(=O)NCc2cccs2)c2nc3ccccc3nc21`, the “hERG current change (%, negative = inhibition) at 10uM” value was -8%. With `C/C(=N\NC(=O)Cn1nc(C)c([N+](=O)[O-])c1C)c1ccc(Cl)s1` the “hERG current change (%, negative = inhibition) at 10uM” value was 2.42%. `CC1CCN(CC(=O)Nc2ccccc2Sc2ccccc2)CC1` was tested, and the “hERG current change (%, negative = inhibition) at 10uM” value was -5.71%. In the case of `O=C(Nc1ccccc1N1CCCCC1)C1CC(=O)N(c2ccccc2F)C1` (stereo not drawn), the “hERG current change (%, negative = inhibition) at 10uM” value is reported as -2.85%. `CC(C)CCn1cnc2c1c(=O)[nH]c(=O)n2Cc1ccccc1` was tested, and the “hERG current change (%, negative = inhibition) at 10uM” value was 5.51%. `O=c1[nH]c2ccc(NCc3ccccc3OCc3ccc(Cl)cc3)cc2[nH]1` was tested, and the “hERG current change (%, negative = inhibition) at 10uM” value was 7.82%. In the case of `O=C(N/N=C/c1cccs1)c1cc(-c2ccc3ccccc3c2)n[nH]1`, the “hERG current change (%, negative = inhibition) at 10uM” value is reported as -1.37%. `O=C(c1ccco1)N1CCN(C23CC4CC(CC(C4)C2)C3)CC1` was tested, and the “hERG current change (%, negative = inhibition) at 10uM” value was -13.4%. `CCOc1ccccc1N1C(=O)NC(=O)/C(=C/c2ccc3c4c(cccc24)CC3)C1=O` was tested, and the “hERG current change (%, negative = inhibition) at 10uM” value was 2.74%. For `COc1ccc(CCNC(=O)C(=O)NCC2CCCN2S(=O)(=O)c2ccccc2)cc1` (stereo not drawn), the “hERG current change (%, negative = inhibition) at 10uM” value was -49.1%. With `O=C(NCN1C(=O)C2C3C=CC(C3)C2C1=O)OC1CCCCC1` (stereo not drawn) the “hERG current change (%, negative = inhibition) at 10uM” value was 4.17%. `N#Cc1nc(Cc2ccccc2)oc1NCc1ccccc1Cl` was tested, and the “hERG current change (%, negative = inhibition) at 10uM” value was -12.4%. For `CC1Cc2ccccc2N1S(=O)(=O)c1cccs1` (stereo not drawn), the “hERG current change (%, negative = inhibition) at 10uM” value was -6.56%. `CC(C)=C1C(=O)NN(c2ccc(F)c(Cl)c2)C1=O` was tested, and the “hERG current change (%, negative = inhibition) at 10uM” value was 18.5%. `CC(C)CCN1CCN(Cc2cc(F)ccc2-n2cccn2)CC1CCO` (stereo not drawn) was tested, and the “hERG current change (%, negative = inhibition) at 10uM” value was -25.8%. `Cc1cc(C)nc(N/C(=N\S(=O)(=O)Cc2ccccc2)Nc2ccc(F)c(Cl)c2)n1` was tested, and the “hERG current change (%, negative = inhibition) at 10uM” value was -13.8%. `CCN1CCc2c(OCC(=O)Nc3ccc4c(c3)OCCO4)cccc2C1=O` was tested, and the “hERG current change (%, negative = inhibition) at 10uM” value was 5.28%. In the case of `Nc1nnc(Cc2ccccc2F)s1`, the “hERG current change (%, negative = inhibition) at 10uM” value is reported as -8.84%. `Cc1ccc(NC(=O)COC(=O)C2=NN(c3ccccc3)C(=O)CC2)c(Br)c1` was tested, and the “hERG current change (%, negative = inhibition) at 10uM” value was 0.65%. With `COC(=O)c1cc(O)cc(OC)c1C(=O)c1c(O)cc(C)cc1O` the “hERG current change (%, negative = inhibition) at 10uM” value was 4.87%. For `Cc1c(Cl)cccc1NC(=O)CC1SC(=NCC2CCCO2)NC1=O` (stereo not drawn), the “hERG current change (%, negative = inhibition) at 10uM” value was 3.76%. In the case of `COc1ccccc1NC(=O)C(C)OC(=O)C1CCN(S(=O)(=O)c2ccc(C)c(C)c2)CC1` (stereo not drawn), the “hERG current change (%, negative = inhibition) at 10uM” value is reported as -4.41%. `COc1ccccc1Sc1ccccc1CC(C)N.Cl.O` (stereo not drawn) was tested, and the “hERG current change (%, negative = inhibition) at 10uM” value was -16.6%. In the case of `CC1CC(C)CN(CCCNC(=O)C2CCCN(c3nnc(N4CCCC4=O)s3)C2)C1` (stereo not drawn), the “hERG current change (%, negative = inhibition) at 10uM” value is reported as 8.5%. `CCn1ccnc1CN1CCCC(C(=O)c2cc(C)c(OC)c(C)c2)C1` (stereo not drawn) was tested, and the “hERG current change (%, negative = inhibition) at 10uM” value was -23.2%. In the case of `OCCNCCCCOc1ccccc1F`, the “hERG current change (%, negative = inhibition) at 10uM” value is reported as -9.69%. In the case of `O=c1c(Cc2ccc(F)cc2)c(O)ccn1CCCn1ccnc1`, the “hERG current change (%, negative = inhibition) at 10uM” value is reported as 20.1%. For `COc1ccc(Cl)cc1NC(=O)CSc1sc2c(O)cc(=O)[nH]c2c1C#N`, the “hERG current change (%, negative = inhibition) at 10uM” value was 4.1%. In the case of `CCc1cccc(NC(=O)CSC2=NS(=O)(=O)c3ccccc32)c1`, the “hERG current change (%, negative = inhibition) at 10uM” value is reported as -2.44%. With `Clc1ccc(OCCCN2CCCC2)cc1Cl.O=C(O)C(=O)O` the “hERG current change (%, negative = inhibition) at 10uM” value was -67.7%. `Br.COC(=O)Cn1c(=N)n(CCN2CCCCC2)c2ccccc21` was tested, and the “hERG current change (%, negative = inhibition) at 10uM” value was -19.2%. For `O=C(CSc1nc(-c2ccc(Cl)cc2)[nH]c(=O)n1)Nc1cccc(Cl)c1`, the “hERG current change (%, negative = inhibition) at 10uM” value was 22.3%. In the case of `O=C(Nc1ccc(Oc2ccsc2C(=O)O)cc1)c1ccccc1`, the “hERG current change (%, negative = inhibition) at 10uM” value is reported as 7.36%. With `Cc1cccc(C)c1NC(=O)COC(=O)c1c(C)nn(-c2ccccc2)c1C` the “hERG current change (%, negative = inhibition) at 10uM” value was -4.61%. `Cc1ccc(C)c(OCC(=O)Nc2cccc(C(=O)O)c2)c1C` was tested, and the “hERG current change (%, negative = inhibition) at 10uM” value was -28.6%. With `CCOc1ccc(NC(=O)Nc2ccc(N(C)C(C)=O)cc2)cc1` the “hERG current change (%, negative = inhibition) at 10uM” value was -2.39%. In the case of `Cc1[nH]n(-c2ncc(-c3ccccc3)s2)c(=O)c1C(c1ccc(Cl)cc1)C(C#N)C#N` (stereo not drawn), the “hERG current change (%, negative = inhibition) at 10uM” value is reported as 14.9%. For `CCN(CC)C(=O)c1scc2c1OCCO2`, the “hERG current change (%, negative = inhibition) at 10uM” value was 13.2%. With `O=C(Nc1cccc(Cl)c1)C1CCN(C(=O)c2cccs2)CC1` the “hERG current change (%, negative = inhibition) at 10uM” value was -16.8%. `CCCC(=O)Nc1ccc2nn(-c3ccc(OC)cc3)nc2c1` was tested, and the “hERG current change (%, negative = inhibition) at 10uM” value was 9.41%. For `C=CCn1c(SCC(=O)NC2CCCCC2)nnc1-c1sc(N)nc1C`, the “hERG current change (%, negative = inhibition) at 10uM” value was -2.48%. With `CN1C2=C(C#N)C(c3ccccc3)(C(F)(F)F)NC(=O)N2c2ccccc21` (stereo not drawn) the “hERG current change (%, negative = inhibition) at 10uM” value was 4.12%. For `CN1CCOCCOc2ccccc2OCCOCC1`, the “hERG current change (%, negative = inhibition) at 10uM” value was 7.5%. In the case of `Cc1nc(C)c(NC(=O)OC(C)C)cc1NC(=O)OC(C)C`, the “hERG current change (%, negative = inhibition) at 10uM” value is reported as 16.3%. In the case of `Cc1ccc(C(=O)N/C(=C\c2ccc(-c3ccccc3[N+](=O)[O-])o2)C(=O)NCCCN2CCOCC2)cc1`, the “hERG current change (%, negative = inhibition) at 10uM” value is reported as -61.9%. With `CSc1ncc(C(C)=O)c(C)n1` the “hERG current change (%, negative = inhibition) at 10uM” value was 16.4%. `COc1ccc(/C=N\NC(=O)CC(=O)Nc2cccc(Cl)c2)cc1OC` was tested, and the “hERG current change (%, negative = inhibition) at 10uM” value was -9.69%. `CN1C(=O)CC(=O)N(C)c2cc(S(=O)(=O)N(C)Cc3ccccc3)ccc21` was tested, and the “hERG current change (%, negative = inhibition) at 10uM” value was -9.17%. For `COc1ccc(S(=O)(=O)NC(N)=NCCc2ccccc2OC)cc1`, the “hERG current change (%, negative = inhibition) at 10uM” value was -4.72%. With `Oc1ccc(C[C@H]2CNCCN2CCc2cccc3ccccc23)cc1` the “hERG current change (%, negative = inhibition) at 10uM” value was -17.7%.
